Experimental data as given in the supplement of paper PMC10037445.
Over roughly 2,900 compounds, “IRF Lucia reporter activity, fold change vs agonist alone” has its median near 0.9; the highest 2% begin near 2.8. The list shows a part of the results.

Assays:
[1] = tested on: RAW-Dual; assay: IRF Lucia reporter activity, fold change vs agonist alone; cytotoxicity flag (confluency mask): not cytotoxic; higher = enhanced IRF activity
Summary of the method: (§1)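 Supernatant from RAW-Dual macrophages was read after 20 hours for IRF by QuantiLuc luminescence and for NF-κB by QuantiBlue absorbance at 620 nm. The cells (50,000 cells/well in DMEM, 384-well plates, 37 °C, 5% CO2) had received 50 nL of library stock by pin tool and, 1 h later, a PRR agonist. Reporter activity is expressed relative to agonist-alone wells as fold change, and wells were flagged cytotoxic if IncuCyte confluency was under 70% of agonist controls in both mask sets.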

[2] = tested on: RAW-Dual; assay: IRF Lucia reporter activity, fold change vs agonist alone; higher = enhanced IRF activity; conditions: cytotoxicity flag (confluency mask): not cytotoxic, agonist: MPLA (TLR4) […]
Summary of the method: as §1

[3] = tested on: RAW-Dual; assay: IRF Lucia reporter activity, fold change vs agonist alone; cytotoxicity flag (confluency mask): cytotoxic (confluency <70% of control); higher = enhanced IRF activity
Summary of the method: as §1

[4] = agonist: 3'3'-cGAMP (STING) 10 ug/mL
[5] = library stock concentration (final ~1000-fold dilution): 10 mM

Question: Which “IRF Lucia reporter activity” value [1, 4] does the source give for `O=C(O)CCn1c2c(c3ccccc31)CC(NS(=O)(=O)c1ccc(F)cc1)CC2` (stereo not drawn) (library stock concentration (final ~1000-fold dilution): 10 mM) here?
Answer: 1.01

Question: And the “IRF Lucia reporter activity” value ([1]; agonist: LPS (TLR4) 0.1 ug/mL)?
Answer: 1.38

Question: For `O=C(O)CCn1c2c(c3ccccc31)CC(NS(=O)(=O)c1ccc(F)cc1)CC2` (stereo not drawn), which “IRF Lucia reporter activity” value [2, 5] is on record?
Answer: 1.09

Question: With `O=C(Nc1ccc2[nH]nc(-c3ccc4[nH]ccc4c3)c2c1)c1c(Cl)cccc1Cl` (library stock concentration (final ~1000-fold dilution): 10 mM) as the compound, how does the “IRF Lucia reporter activity” value [3, 4] read?
Answer: 0.0218

Question: What about the “IRF Lucia reporter activity” value ([3]; agonist: LPS (TLR4) 0.1 ug/mL) of the same compound?
Answer: 0.0379

Question: What does the source list for `COc1ccc2c(c1)C1(CC1c1ccc3c(/C=C/c4ccc(CN5CC(C)OC(C)C5)cc4)n[nH]c3c1)C(=O)N2` (stereo not drawn) (library stock concentration (final ~1000-fold dilution): 10 mM)?
Answer: IRF Lucia reporter activity [1, 4]: 0.514; IRF Lucia reporter activity ([1]; agonist: LPS (TLR4) 0.1 ug/mL): 1.21

Question: For `COc1ccc2c(c1)C1(CC1c1ccc3c(/C=C/c4ccc(CN5CC(C)OC(C)C5)cc4)n[nH]c3c1)C(=O)N2` (stereo not drawn), which “IRF Lucia reporter activity” value [2, 5] is on record?
Answer: 1.06

Question: With `CC(C)CN(CC(O)C(Cc1ccccc1)NC(=O)OC1COC2OCCC12)S(=O)(=O)c1ccc(N)cc1` (stereo not drawn) as the compound, how does the “IRF Lucia reporter activity” value [2, 5] read?
Answer: 1.14

Question: For `CC(C)CN(CC(O)C(Cc1ccccc1)NC(=O)OC1COC2OCCC12)S(=O)(=O)c1ccc(N)cc1` (stereo not drawn) (library stock concentration (final ~1000-fold dilution): 10 mM), which “IRF Lucia reporter activity” value [1, 4] is on record?
Answer: 0.959

Question: What about the “IRF Lucia reporter activity” value ([1]; agonist: LPS (TLR4) 0.1 ug/mL) of the same compound?
Answer: 1.39

Question: Which “IRF Lucia reporter activity” value [1, 4] does the source give for `OCCc1ccc(O)cc1` (library stock concentration (final ~1000-fold dilution): 10 mM) here?
Answer: 1.19

Question: And the “IRF Lucia reporter activity” value ([1]; agonist: LPS (TLR4) 0.1 ug/mL)?
Answer: 1.29

Question: For `N=C(N)NCCCC1NC(=O)C(CCCCN)NC(=O)C(Cc2ccccc2)NC(=O)C(CC(=O)O)NC(=O)CNC1=O.O=C(O)C(F)(F)F` (stereo not drawn) (library stock concentration (final ~1000-fold dilution): 10 mM), which “IRF Lucia reporter activity” value [1, 4] is on record?
Answer: 1.28

Question: And the “IRF Lucia reporter activity” value ([1]; agonist: LPS (TLR4) 0.1 ug/mL)?
Answer: 1.07

Question: What does the source list for `Cl.N=C(N)c1ccccc1` (library stock concentration (final ~1000-fold dilution): 10 mM)?
Answer: IRF Lucia reporter activity [1, 4]: 1.02; IRF Lucia reporter activity ([1]; agonist: LPS (TLR4) 0.1 ug/mL): 1.53

Question: With `Cl.N=C(N)c1ccccc1` as the compound, how does the “IRF Lucia reporter activity” value [2, 5] read?
Answer: 1.11

Question: What does the source list for `O=C1C(Cc2ccc(O)cc2)N2C(=O)CCN(C(=O)NCc3ccccc3)C2CN1Cc1cccc2ccccc12` (stereo not drawn) (library stock concentration (final ~1000-fold dilution): 10 mM)?
Answer: IRF Lucia reporter activity [1, 4]: 0.604; IRF Lucia reporter activity ([1]; agonist: LPS (TLR4) 0.1 ug/mL): 0.762

Question: For `O=C1C(Cc2ccc(O)cc2)N2C(=O)CCN(C(=O)NCc3ccccc3)C2CN1Cc1cccc2ccccc12` (stereo not drawn), which “IRF Lucia reporter activity” value [2, 5] is on record?
Answer: 0.779

Question: With `CCN(c1cc(-c2ccc(CN3CCOCC3)cc2)cc(C(=O)NCc2c(C)cc(C)[nH]c2=O)c1C)C1CCOCC1` (library stock concentration (final ~1000-fold dilution): 2 mM) as the compound, how does the “IRF Lucia reporter activity” value [1, 4] read?
Answer: 0.921

Question: What about the “IRF Lucia reporter activity” value ([1]; agonist: LPS (TLR4) 0.1 ug/mL) of the same compound?
Answer: 0.841

Question: Which “IRF Lucia reporter activity” value ([2]; library stock concentration (final ~1000-fold dilution): 2 mM) does the source give for `CCN(c1cc(-c2ccc(CN3CCOCC3)cc2)cc(C(=O)NCc2c(C)cc(C)[nH]c2=O)c1C)C1CCOCC1` here?
Answer: 0.949

Question: How did the “IRF Lucia reporter activity” value [2, 5] turn out when `NC(N)=O` was run?
Answer: 1.05

Question: With `NC(N)=O` (library stock concentration (final ~1000-fold dilution): 10 mM) as the compound, how does the “IRF Lucia reporter activity” value [1, 4] read?
Answer: 0.991

Question: What about the “IRF Lucia reporter activity” value ([1]; agonist: LPS (TLR4) 0.1 ug/mL) of the same compound?
Answer: 1.21

Question: `CC(C)CCNC(=O)C(CC(C)C)NC(=O)C1OC1C(=O)O` (stereo not drawn) was tested. Which “IRF Lucia reporter activity” value [2, 5] did it give?
Answer: 1.08

Question: With `CC(C)CCNC(=O)C(CC(C)C)NC(=O)C1OC1C(=O)O` (stereo not drawn) (library stock concentration (final ~1000-fold dilution): 10 mM) as the compound, how does the “IRF Lucia reporter activity” value [1, 4] read?
Answer: 1.19

Question: And the “IRF Lucia reporter activity” value ([1]; agonist: LPS (TLR4) 0.1 ug/mL)?
Answer: 0.945

Question: How did the “IRF Lucia reporter activity” value [1, 4] turn out when `Cl.NC(CO)C(=O)NNCc1ccc(O)c(O)c1O` (stereo not drawn) (library stock concentration (final ~1000-fold dilution): 10 mM) was run?
Answer: 1.06

Question: What about the “IRF Lucia reporter activity” value ([1]; agonist: LPS (TLR4) 0.1 ug/mL) of the same compound?
Answer: 0.937

Question: `Cl.NC(CO)C(=O)NNCc1ccc(O)c(O)c1O` (stereo not drawn) was tested. Which “IRF Lucia reporter activity” value [2, 5] did it give?
Answer: 0.97

Question: With `O=C(NCC(=O)N1CCCC1)Nc1ccc2cnccc2c1` (library stock concentration (final ~1000-fold dilution): 10 mM) as the compound, how does the “IRF Lucia reporter activity” value [1, 4] read?
Answer: 0.91

Question: What about the “IRF Lucia reporter activity” value ([1]; agonist: LPS (TLR4) 0.1 ug/mL) of the same compound?
Answer: 0.742

Question: What does the source list for `CCN(C(=O)c1c(O)n(C)c2cccc(Cl)c2c1=O)c1ccccc1` (library stock concentration (final ~1000-fold dilution): 10 mM)?
Answer: IRF Lucia reporter activity [1, 4]: 0.934; IRF Lucia reporter activity ([1]; agonist: LPS (TLR4) 0.1 ug/mL): 0.798

Question: `CS(=O)(=O)Nc1ccc([N+](=O)[O-])cc1OC1CCCCC1` (library stock concentration (final ~1000-fold dilution): 10 mM) was tested. Which “IRF Lucia reporter activity” value [1, 4] did it give?
Answer: 1.2

Question: And the “IRF Lucia reporter activity” value ([1]; agonist: LPS (TLR4) 0.1 ug/mL)?
Answer: 1.21

Question: What does the source list for `Nc1c(Br)cc(Br)cc1CNC1CCC(O)CC1` (stereo not drawn) (library stock concentration (final ~1000-fold dilution): 10 mM)?
Answer: IRF Lucia reporter activity [1, 4]: 0.921; IRF Lucia reporter activity ([1]; agonist: LPS (TLR4) 0.1 ug/mL): 0.884

Question: With `Nc1c(Br)cc(Br)cc1CNC1CCC(O)CC1` (stereo not drawn) as the compound, how does the “IRF Lucia reporter activity” value [2, 5] read?
Answer: 0.85

Question: `CC(N)C12CC3CC(CC(C3)C1)C2` (stereo not drawn) was tested. Which “IRF Lucia reporter activity” value [2, 5] did it give?
Answer: 0.919
